Measurements reported in patent US20250313638A1 (KISOJI BIOTECHNOLOGY, published 2025).

Experiments:
[1] = target: T1, human Dopamine Receptor D2 presented on proteoliposomes (human, UniProt P14416 1-443, limits assumed); assay: ELISA: D2 proteoliposomes coated on the plate; KC020 not stressed
T1 construct: also called D2 proteoliposomes; human D2 presenting proteoliposomes
Experimental: (§1) Plates were covered and left at 4° C. overnight. The next day, plates were washed once with PBS and blocked with blocking buffer for 1 hour at room temperature. […] After incubation, plates were washed three times with washing buffer. Plates were incubated with anti-human-Fc-HRP (Sigma-Aldrich, Cat. No. AP113P) diluted at 1:5000 for 1 hour at room temperature, then washed three times with PBS-T washing buffer. The signal was developed with SuperSignal™ ELISA Pico Chemiluminescent Substrate (Thermofisher, Cat. No. 37069). The plates were read on a SpectraMax™ i3x Multi-Mode Microplate Reader (Molecular Devices).

[2] = target: T1, human Dopamine Receptor D2 presented on …; assay: as above; remark: listed apart in the source
Experimental: as §1

[3] = target: T2, recombinant human PD-1 protein (human, UniProt Q15116 part only); assay: ELISA: recombinant human PD-1 coated on the plate; KC020 not stressed
T2 construct: Bought (Cedarlane Cat. No. HPLC-10377-H08H-100); also called human recombinant PD1 protein; PD-1 recombinant protein
Experimental: (§2) Briefly, recombinant proteins were coated on 96-well plates. Plates were covered and left at 4° C. overnight. The next day, plates were washed once with PBS and blocked with blocking buffer for 1 hour at room temperature. Binding agents were tested at the indicated concentration (357 nM starting concentration, followed by 12 one in four serial dilutions for FIG. 9B lower panel), diluted in the blocking buffer, and incubated for 1 hour at 37° C. After incubation, plates were washed three times with washing buffer. Plates were incubated with anti-human-Fc-HRP (Sigma-Aldrich, Cat. No. AP113P) diluted at 1:5000 for 1 hour at room temperature, then washed three times with PBS-T washing buffer. The signal was developed with SuperSignal™ ELISA Pico Chemiluminescent Substrate (Thermofisher, Cat. No. 37069). The plates were read on a SpectraMax™ i3x Multi-Mode Microplate Reader (Molecular Devices).

[4] = target: T3, recombinant human CD47 protein (human, UniProt Q08722 part only); assay: ELISA: recombinant human CD47 coated on the plate; KC020 not stressed
T3 construct: Bought (Cedarlane Cat. No. 12283-H08H-200); also called human recombinant CD47 protein; CD47 recombinant protein
Experimental: as §2

[5] = target: T2, recombinant human PD-1 protein; assay: ELISA: recombinant human PD-1 coated on the plate; KC020 not stressed; remark: listed apart in the source
Experimental: as §2

[6] = target: T3, recombinant human CD47 protein; assay: ELISA: recombinant human CD47 coated on the plate; KC020 not stressed; remark: listed apart in the source
Experimental: as §2

[7] = target: T1, human Dopamine Receptor D2 presented on …; assay: ELISA: D2 proteoliposomes coated on the plate; KC020 after 2 weeks at 40 C
Experimental: as §1

[8] = target: T1, human Dopamine Receptor D2 presented on …; assay: ELISA: D2 proteoliposomes coated on the plate; KC020 after pH 3.5 for 4 hours
Experimental: as §1

[9] = target: T2, recombinant human PD-1 protein; assay: ELISA: recombinant human PD-1 coated on the plate; KC020 after 2 weeks at 40 C
Experimental: as §2

[10] = target: T3, recombinant human CD47 protein; assay: ELISA: recombinant human CD47 coated on the plate; KC020 after 2 weeks at 40 C
Experimental: as §2

[11] = target: T1, human Dopamine Receptor D2 presented on …; assay: ELISA: D2 proteoliposomes coated on the plate; KC020 after pH 3.5 for 48 hours
Experimental: as §1

[12] = target: T1, human Dopamine Receptor D2 presented on …; assay: ELISA: D2 proteoliposomes coated on the plate; KC020 after agitation for 3 days
Experimental: as §1

[13] = target: T2, recombinant human PD-1 protein; assay: ELISA: recombinant human PD-1 coated on the plate; KC020 after pH 3.5 for 4 hours
Experimental: as §2

[14] = target: T3, recombinant human CD47 protein; assay: ELISA: recombinant human CD47 coated on the plate; KC020 after pH 3.5 for 4 hours
Experimental: as §2

[15] = target: T1, human Dopamine Receptor D2 presented on …; assay: ELISA: D2 proteoliposomes coated on the plate; KC020 after five freeze-thaw cycles
Experimental: as §1

[16] = target: T2, recombinant human PD-1 protein; assay: ELISA: recombinant human PD-1 coated on the plate; KC020 after pH 3.5 for 48 hours
Experimental: as §2

[17] = target: T3, recombinant human CD47 protein; assay: ELISA: recombinant human CD47 coated on the plate; KC020 after pH 3.5 for 48 hours
Experimental: as §2

[18] = target: T2, recombinant human PD-1 protein; assay: ELISA: recombinant human PD-1 coated on the plate; KC020 after agitation for 3 days
Experimental: as §2

[19] = target: T3, recombinant human CD47 protein; assay: ELISA: recombinant human CD47 coated on the plate; KC020 after agitation for 3 days
Experimental: as §2

[20] = target: T2, recombinant human PD-1 protein; assay: ELISA: recombinant human PD-1 coated on the plate; KC020 after five freeze-thaw cycles
Experimental: as §2

[21] = target: T3, recombinant human CD47 protein; assay: ELISA: recombinant human CD47 coated on the plate; KC020 after five freeze-thaw cycles
Experimental: as §2

T3 sequence (Q08722 19-139 limits assumed): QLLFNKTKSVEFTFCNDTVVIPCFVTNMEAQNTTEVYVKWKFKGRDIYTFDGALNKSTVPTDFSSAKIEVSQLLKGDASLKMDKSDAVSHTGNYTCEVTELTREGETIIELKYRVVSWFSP
T2 sequence (Q15116 25-167 limits assumed): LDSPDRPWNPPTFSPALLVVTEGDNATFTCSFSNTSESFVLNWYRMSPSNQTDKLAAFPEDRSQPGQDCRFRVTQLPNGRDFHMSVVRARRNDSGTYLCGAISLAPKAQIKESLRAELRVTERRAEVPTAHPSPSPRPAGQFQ
T1 sequence (P14416 whole entry): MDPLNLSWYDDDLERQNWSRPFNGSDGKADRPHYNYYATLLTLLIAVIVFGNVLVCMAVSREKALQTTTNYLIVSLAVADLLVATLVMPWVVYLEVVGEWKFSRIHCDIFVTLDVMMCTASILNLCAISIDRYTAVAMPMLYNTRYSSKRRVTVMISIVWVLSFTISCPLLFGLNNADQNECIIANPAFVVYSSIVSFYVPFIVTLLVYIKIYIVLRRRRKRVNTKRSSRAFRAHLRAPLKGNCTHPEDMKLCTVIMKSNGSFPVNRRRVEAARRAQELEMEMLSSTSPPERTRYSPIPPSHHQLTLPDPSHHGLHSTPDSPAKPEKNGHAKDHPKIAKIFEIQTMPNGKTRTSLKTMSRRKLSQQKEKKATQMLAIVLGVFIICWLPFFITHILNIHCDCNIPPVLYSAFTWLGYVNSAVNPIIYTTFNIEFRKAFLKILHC

B1: KC020 (Fc fusion)
chain: QVQLQESGGGLVQAGGSLRLSCAASEIIFSITAMNWYRQAPGKQRELVAGISSSGKITYQDSVKGRFTISKDNAKNTLYLQMNSLKPEDTAVYYCNTWAGARDAIWGQGTQVTVSS[gap - human IgG1 Fc]APAPAPAPAPKAQVQLQESGGGWVQPGGSLRLSCVASGFTFSRSSMSWHRQAPGKERDLVAIISSSGIITHYSDSVKGRFTISRDNAKDTVYLQMNSLKPEDTAVYVCNAVLDDDSGDYWGQGTQVTVSSGGGGSGGGGSGGGGSQVQLQESGGGLVQPGGSLRLSCAASRFDFSVNDIRWYRQAPGNERELVARITGGGRTDYADSVKGRFTISRDNAKNTVYLQMNNLKPEDTAVYYCWGRGYWGQGTQVTVSS
notes: KC001 VHH, human IgG1 hinge-CH2-CH3, rigid linker, KC009 VHH, flexible linker, KC010 VHH; May comprise a His-tag or not; also called (DR2)
EC50 (read off the curve) [1]: ~0.1 nM | EC50 (read off the curve) [2]: ~0.1 nM | EC50 (read off the curve) [3]: ~0.2 nM | EC50 (read off the curve) [4]: ~0.2 nM | EC50 (read off the curve) [5]: ~0.2 nM | EC50 (read off the curve) [6]: ~0.3 nM | EC50 (read off the curve) [7]: ~0.1 nM | EC50 (read off the curve) [8]: ~0.1 nM | EC50 (read off the curve) [9]: ~0.2 nM | EC50 (read off the curve) [10]: ~0.2 nM | EC50 (read off the curve) [11]: ~0.1 nM | EC50 (read off the curve) [12]: ~0.1 nM | EC50 (read off the curve) [13]: ~0.1 nM | EC50 (read off the curve) [14]: ~0.2 nM | EC50 (read off the curve) [15]: ~0.1 nM | EC50 (read off the curve) [16]: ~0.2 nM | EC50 (read off the curve) [17]: ~0.3 nM | EC50 (read off the curve) [18]: ~0.1 nM | EC50 (read off the curve) [19]: ~0.2 nM | EC50 (read off the curve) [20]: ~0.1 nM | EC50 (read off the curve) [21]: ~0.2 nM
